Results from a collection of fitness landscapes (doi:10.1016/j.celrep.2020.107928).
Whole data set: some 81,000 sequences, median “one-hybrid fitness for binding parS DNA” near -0.17, cut for the highest 2% near 0.51. This is one part of the list.

B1: Caulobacter ParB omega fusion; a variant is named by its letters at X, in order, B8GW30 (parent)
chain: MESVVVGEPGMSEGRRGLGRGLSALLGEVDAAPAQAPGEQLGGSREAPIEILQRNPDQPRRTFREEDLEDLSNSIREKGVLQPILVRPSPDTAGEYQIVAGERAWRAAQRAGLKTVPIMVRELDDLAVLEIGIIENVQRADLNVLEEALSYKVLMEKFERTQENIAQTIGKSXSHVANXMRLLXLPDEVQSYLVSGELTAXHARAIAAAADPVALAKQIIEGGLSVRETEALARKAPNLSAGKSKGGRPPRVKDTDTQALESDLSSVLGLDVSIDHRGSTGTLTITYATLEQLDDLCNRLTRGI

Variants of: B1
Test: one-hybrid fitness for binding parS DNA (scaled: cognate 1, non-cognate 0); higher = stronger binding
Settings: with parS DNA site
In short: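 Caulobacter ParB libraries with four specificity codons randomised were screened by bacterial one-hybrid selection in the E. coli USO strain, using a HIS3 reporter whose site lies 19 bp from the promoter. Selection ran for 48 hours at 37°C on M9 lacking histidine, with 0.1 mM IPTG and 5 mM 3-AT. Plasmids were Illumina-sequenced before and after selection, three replicate libraries were pooled, and variants with under 10 reads were dropped. Fitness is the log change in each variant's read ratio to wild type, rescaled against the cognate and non-cognate sites.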

Row | Variant | one-hybrid fitness for binding parS DNA
1 | VTTV | ≤ 0.2
2 | QTEM | ≤ 0.2
3 | RNEI | ≤ 0.2
4 | NTRT | ≤ 0.2
5 | LTGR | ≤ 0.2
6 | VFRP | ≤ 0.2
7 | ALDY | ≤ 0.2
8 | NDQR | ≤ 0.2
9 | DHKR | ≤ 0.2
10 | FYCG | ≤ 0.2
11 | FVTD | ≤ 0.2
12 | YEPC | ≤ 0.2
13 | QTWY | ≤ 0.2
14 | QRWV | ≤ 0.2
15 | GQTF | ≤ 0.2
16 | MMHG | ≤ 0.2
17 | YAVD | ≤ 0.2
18 | GSKA | ≤ 0.2
19 | TVLA | ≤ 0.2
20 | TAGM | ≤ 0.2
21 | PICW | ≤ 0.2
22 | HTEG | ≤ 0.2
23 | DLTE | ≤ 0.2
24 | IKRG | ≤ 0.2

Row | Variant | one-hybrid fitness for binding parS DNA
25 | CSCI | ≤ 0.2
26 | FATY | ≤ 0.2
27 | HGSS | ≤ 0.2
28 | CMLR | ≤ 0.2
29 | TRAV | ≤ 0.2
30 | DLSG | ≤ 0.2
31 | YAEL | ≤ 0.2
32 | TATA | ≤ 0.2
33 | YHER | ≤ 0.2
34 | PCQR | ≤ 0.2
35 | KFRI | ≤ 0.2
36 | RIKI | ≤ 0.2
37 | QRWK | ≤ 0.2
38 | RTAR | ≤ 0.2
39 | DSWC | ≤ 0.2
40 | GAMG | ≤ 0.2
41 | TQSG | ≤ 0.2
42 | TNSY | ≤ 0.2
43 | QFVS | ≤ 0.2
44 | NVSN | ≤ 0.2
45 | TLWY | ≤ 0.2
46 | VEEC | ≤ 0.2
47 | DFCS | ≤ 0.2
48 | MTAS | ≤ 0.2

Row | Variant | one-hybrid fitness for binding parS DNA
49 | QQAL | ≤ 0.2
50 | IPNA | ≤ 0.2
51 | LLWF | ≤ 0.2
52 | RQAS | 0.988
53 | STTD | ≤ 0.2
54 | SCLD | ≤ 0.2
55 | QLFN | ≤ 0.2
56 | TPAQ | ≤ 0.2
57 | HDTM | ≤ 0.2
58 | MAYH | ≤ 0.2
59 | ERTF | ≤ 0.2
60 | DDNR | ≤ 0.2
61 | CPST | ≤ 0.2
62 | YKDA | ≤ 0.2
63 | PKEG | ≤ 0.2
64 | TAPK | ≤ 0.2
65 | HRPL | ≤ 0.2
66 | YEPV | ≤ 0.2
67 | PSSA | ≤ 0.2
68 | EGYG | ≤ 0.2
69 | HSDS | ≤ 0.2
70 | ELWA | ≤ 0.2
71 | YLEC | ≤ 0.2
72 | LGWT | ≤ 0.2

Row | Variant | one-hybrid fitness for binding parS DNA
73 | PFTF | ≤ 0.2
74 | PRMM | ≤ 0.2
75 | QPSR | ≤ 0.2
76 | ILCI | ≤ 0.2
77 | HLDL | ≤ 0.2
78 | FQAE | ≤ 0.2
79 | MNTC | ≤ 0.2
80 | NWQR | ≤ 0.2
81 | GTFG | ≤ 0.2
82 | VQPF | ≤ 0.2
83 | DRLV | ≤ 0.2
84 | SLTS | ≤ 0.2
85 | HYVK | ≤ 0.2
86 | SGIY | ≤ 0.2
87 | CFSC | ≤ 0.2
88 | RYDI | ≤ 0.2
89 | RCIR | ≤ 0.2
90 | TNAC | ≤ 0.2
91 | PYRV | ≤ 0.2
92 | FMPC | ≤ 0.2
93 | HQWS | ≤ 0.2
94 | PVLY | ≤ 0.2
95 | VRLY | ≤ 0.2
96 | LHTT | ≤ 0.2

Row | Variant | one-hybrid fitness for binding parS DNA
97 | QCHI | ≤ 0.2
98 | SSHE | ≤ 0.2
99 | PYTC | ≤ 0.2
100 | PDFT | ≤ 0.2
101 | KCQG | ≤ 0.2
102 | GPMK | ≤ 0.2
103 | EDNG | ≤ 0.2
104 | EPQE | ≤ 0.2
105 | SMQL | ≤ 0.2
106 | HYPL | ≤ 0.2
107 | AFKK | ≤ 0.2
108 | YWTG | ≤ 0.2
109 | IAQR | ≤ 0.2
110 | SHEN | ≤ 0.2
111 | MRLD | ≤ 0.2
112 | ITNM | ≤ 0.2
113 | SDCL | ≤ 0.2
114 | HMYG | ≤ 0.2
115 | PMSQ | ≤ 0.2
116 | QAHF | ≤ 0.2
117 | LTVY | ≤ 0.2
118 | PSQT | ≤ 0.2
119 | AQAS | ≤ 0.2
120 | APCS | ≤ 0.2

Row | Variant | one-hybrid fitness for binding parS DNA
121 | GAPI | ≤ 0.2
122 | IPDL | ≤ 0.2
123 | RCWW | 0.336
124 | LTSP | ≤ 0.2
125 | KPTC | ≤ 0.2
126 | HSGR | ≤ 0.2
127 | TPNM | ≤ 0.2
128 | LPFP | ≤ 0.2
129 | HGHS | ≤ 0.2
130 | RDEA | ≤ 0.2
131 | RVDW | ≤ 0.2
132 | SARE | ≤ 0.2
133 | LQEY | ≤ 0.2
134 | HFQT | ≤ 0.2
135 | KYHS | ≤ 0.2
136 | VANF | ≤ 0.2
137 | RHPI | ≤ 0.2
138 | SLKS | ≤ 0.2
139 | DAST | ≤ 0.2
140 | IRRF | ≤ 0.2
141 | HPMF | ≤ 0.2
142 | FKPF | ≤ 0.2
143 | RVNM | 0.324
144 | EVTP | ≤ 0.2

Row | Variant | one-hybrid fitness for binding parS DNA
145 | GGRT | ≤ 0.2
146 | TLKP | ≤ 0.2
147 | SMYR | ≤ 0.2
148 | RKGQ | ≤ 0.2
149 | NILR | ≤ 0.2
150 | KYMS | ≤ 0.2
151 | PFPS | ≤ 0.2
152 | LLRL | ≤ 0.2
153 | IRSH | ≤ 0.2
154 | GQTI | ≤ 0.2
155 | VNSW | ≤ 0.2
156 | DCRF | ≤ 0.2
157 | ITPV | ≤ 0.2
158 | NTPV | ≤ 0.2
159 | NEHN | ≤ 0.2
160 | TQDC | ≤ 0.2
161 | FIRG | ≤ 0.2
162 | ILWT | ≤ 0.2
163 | ILKV | ≤ 0.2
164 | ISYM | ≤ 0.2
165 | KRFF | ≤ 0.2
166 | KMRG | ≤ 0.2
167 | SLWP | ≤ 0.2
168 | IFQT | ≤ 0.2

Row | Variant | one-hybrid fitness for binding parS DNA
169 | AKNN | ≤ 0.2
170 | NIKT | ≤ 0.2
171 | LTRI | ≤ 0.2
172 | ACYV | ≤ 0.2
173 | RLFR | ≤ 0.2
174 | LSSC | ≤ 0.2
175 | FINK | ≤ 0.2
176 | WPAY | ≤ 0.2
177 | TIQT | ≤ 0.2
178 | CHHR | ≤ 0.2
179 | YPWF | ≤ 0.2
180 | PLMI | ≤ 0.2
181 | RCPH | ≤ 0.2
182 | TVTL | ≤ 0.2
183 | MTTM | ≤ 0.2
184 | QAWN | ≤ 0.2
185 | VGHD | ≤ 0.2
186 | VMAS | ≤ 0.2
187 | HIRP | ≤ 0.2
188 | GSVF | ≤ 0.2
189 | YRTP | ≤ 0.2
190 | LICC | ≤ 0.2
191 | NVTY | ≤ 0.2
192 | WPGT | ≤ 0.2

Row | Variant | one-hybrid fitness for binding parS DNA
193 | QTRD | ≤ 0.2
194 | TVCT | ≤ 0.2
195 | IHHC | ≤ 0.2
196 | HPAD | ≤ 0.2
197 | QSKG | ≤ 0.2
198 | CPIE | ≤ 0.2
199 | ETVC | ≤ 0.2
200 | MGPS | ≤ 0.2
201 | WRGR | ≤ 0.2
202 | EVKV | ≤ 0.2
203 | GSKY | ≤ 0.2
204 | KAAL | ≤ 0.2
205 | EGVM | ≤ 0.2
206 | DCLR | ≤ 0.2
207 | RQGD | ≤ 0.2
208 | GTDT | ≤ 0.2
209 | QVYY | ≤ 0.2
210 | LNQE | ≤ 0.2
211 | TEAL | ≤ 0.2
212 | YTDF | ≤ 0.2
213 | LQFR | ≤ 0.2
214 | DYQT | ≤ 0.2
215 | ALPY | ≤ 0.2
216 | RLGC | 0.97

Row | Variant | one-hybrid fitness for binding parS DNA
217 | HIHI | ≤ 0.2
218 | MHLV | ≤ 0.2
219 | DHDV | ≤ 0.2
220 | TDSD | ≤ 0.2
221 | NDGL | ≤ 0.2
222 | KWST | ≤ 0.2
223 | PNSE | ≤ 0.2
224 | RYGD | ≤ 0.2
225 | LSKP | ≤ 0.2
226 | PMWK | ≤ 0.2
227 | NCTY | ≤ 0.2
228 | LKSN | ≤ 0.2
229 | STHL | ≤ 0.2
230 | CLET | ≤ 0.2
231 | ALKL | ≤ 0.2
232 | DKTW | ≤ 0.2
233 | QKSL | ≤ 0.2
234 | CHKR | ≤ 0.2
235 | YEAH | ≤ 0.2
236 | HERA | ≤ 0.2
237 | FQNR | ≤ 0.2
238 | NTWH | 0.312
239 | DMSY | ≤ 0.2
240 | WLLW | ≤ 0.2

Row | Variant | one-hybrid fitness for binding parS DNA
241 | AFCS | ≤ 0.2
242 | ALNN | ≤ 0.2
243 | QING | ≤ 0.2
244 | WHNS | ≤ 0.2
245 | FTYT | ≤ 0.2
246 | WMKE | ≤ 0.2
247 | VGHL | ≤ 0.2
248 | LNFS | ≤ 0.2
249 | VNMG | ≤ 0.2
250 | PELN | ≤ 0.2
251 | AIMS | ≤ 0.2
252 | ESSV | ≤ 0.2
253 | FMTV | ≤ 0.2
254 | RHNH | ≤ 0.2
255 | IRHH | ≤ 0.2
256 | HEDG | ≤ 0.2
257 | CAGD | ≤ 0.2
258 | IWPL | ≤ 0.2
259 | LNLY | ≤ 0.2
260 | YCYC | ≤ 0.2
261 | GQFT | ≤ 0.2
262 | PSQI | ≤ 0.2
263 | KIRG | ≤ 0.2
264 | IWHR | ≤ 0.2

Row | Variant | one-hybrid fitness for binding parS DNA
265 | TRHG | ≤ 0.2
266 | MQPT | ≤ 0.2
267 | LVPY | ≤ 0.2
268 | GYSR | ≤ 0.2
269 | ISND | ≤ 0.2
270 | NMKM | ≤ 0.2
271 | CRQV | ≤ 0.2
272 | PHVM | ≤ 0.2
273 | PYAA | ≤ 0.2
274 | HWCR | ≤ 0.2
275 | NVHH | ≤ 0.2
276 | PMLN | ≤ 0.2
277 | YTTD | ≤ 0.2
278 | SELV | ≤ 0.2
279 | SLGT | ≤ 0.2
280 | SSFA | ≤ 0.2
281 | NPYE | ≤ 0.2
282 | FYKS | ≤ 0.2
283 | SIYL | ≤ 0.2
284 | CIIR | ≤ 0.2
285 | ATLP | ≤ 0.2
286 | WPRW | ≤ 0.2
287 | VIKL | ≤ 0.2
288 | RCAF | 0.289

Row | Variant | one-hybrid fitness for binding parS DNA
289 | HYYS | ≤ 0.2
290 | SLCE | ≤ 0.2
291 | RDAD | ≤ 0.2
292 | FDHC | ≤ 0.2
293 | FNPA | ≤ 0.2
294 | PLLC | ≤ 0.2
295 | QAYM | ≤ 0.2
296 | NICA | ≤ 0.2
297 | TLRG | ≤ 0.2
298 | CFGT | ≤ 0.2
299 | LWQS | ≤ 0.2
300 | AHNT | ≤ 0.2
301 | RYWH | ≤ 0.2
302 | TNKE | ≤ 0.2
303 | MAAT | ≤ 0.2
304 | ADVT | ≤ 0.2
305 | AGTT | ≤ 0.2
306 | PLDY | ≤ 0.2
